The results in this text go back to the antibiotic and cytotoxicity screens of Wong et al. (2023).

The test system of one test is HSkMC. Put plainly: cytotoxicity call (relative viability < 0.9). To be noted: 10 µM.
For another test, the system named is HepG2. Put plainly: cytotoxicity call (relative viability < 0.9). As to conditions: 10 µM.
A further test concerns S. aureus RN4220. Description: growth inhibition call (relative growth <= 0.2). As to conditions: 50 µM.

The list shows a part of the results.

Turning to `Cc1ccc(S(=O)(=O)Nc2ccc3c(c2)C(=O)N([C@@H](C)CO)C[C@@H](C)[C@H](CN(C)CC2CC2)O3)cc1`, the cytotoxicity call with HSkMC and with HepG2 was “inactive” each time. In addition, the growth inhibition call with S. aureus RN4220 is “inactive”.
For `CCCNC(=O)N1C[C@H](O)COC[C@H]2O[C@H](CC(=O)NCCCN3CCOCC3)CC[C@@H]21`, in the test with HSkMC, the cytotoxicity call was “inactive”. Moreover, in the test on HepG2, the cytotoxicity call is “active”. Further, in the test with S. aureus RN4220, the growth inhibition call was “inactive”.
As to `COc1ccc(C=Cc2cc(O)cc(O[C@@H]3O[C@H](CO)[C@@H](O)[C@H](O)[C@H]3O)c2)cc1`, the cytotoxicity call in the test with HSkMC and with HepG2 was “inactive” each time. In the test on S. aureus RN4220, the growth inhibition call is “inactive”.
Regarding `COCCN1CCC(CN)CC1`, the cytotoxicity call in the test on HSkMC and with HepG2 was “inactive” throughout. Further, the growth inhibition call in the test with S. aureus RN4220 was “inactive”.
Turning to `C[C@@H]1CCCCO[C@@H](CN(C)Cc2ccc(C(F)(F)F)cc2)[C@H](C)CN([C@H](C)CO)C(=O)c2cc(NC(=O)CCC(F)(F)F)ccc2O1`, the cytotoxicity call with HSkMC and with HepG2 was “inactive” in each case. The growth inhibition call in the test on S. aureus RN4220 is “inactive”.
With `Cc1ccc(O)c(-c2cc(-c3ccc(C(C)(C)C)cc3)[nH]n2)c1`, the cytotoxicity call with HSkMC and in the test with HepG2 was “inactive” each time. The growth inhibition call in the test on S. aureus RN4220 was “inactive”.
As for `COCCOC(=O)N1C(=O)[C@@]2(c3cc(C#CCC(C(=O)OC)C(=O)OC)ccc31)[C@H](C(=O)N1CCc3cc(OC)c(OC)cc3C1)[C@H]1C(=O)O[C@H](c3ccccc3)[C@H](c3ccccc3)N1[C@@H]2c1ccccc1OCCO`, the cytotoxicity call in the test on HSkMC and in the test with HepG2 was “inactive” in each case. Also, the growth inhibition call in the test with S. aureus RN4220 is “inactive”.
In the case of `C[C@H](CO)N1C[C@H](C)[C@H](CN(C)Cc2ccc3c(c2)OCO3)OCCCC[C@H](C)Oc2ccc(NC(=O)Nc3cccc4ccccc34)cc2C1=O`, the cytotoxicity call in the test on HSkMC and with HepG2 was “active” in each case. Moreover, in the test with S. aureus RN4220, the growth inhibition call was “inactive”.
Turning to `COCCOC(=O)N1C(=O)[C@@]2(c3cc(C#CCCO)ccc31)[C@H](c1ccccc1OCCO)N1[C@H](c3ccccc3)[C@H](c3ccccc3)OC(=O)[C@H]1[C@@H]2C(=O)N1CCc2cc(OC)c(OC)cc2C1`, the cytotoxicity call in the test on HSkMC and in the test on HepG2 was “inactive” each time. The growth inhibition call with S. aureus RN4220 is “inactive”.
As to `C[C@@H]1CCCCO[C@@H](CN(C)C(=O)C2CCCCC2)[C@@H](C)CN([C@H](C)CO)C(=O)c2cc(NC(=O)Nc3cccc4ccccc34)ccc2O1`, the cytotoxicity call in the test with HSkMC and in the test on HepG2 was “inactive” throughout. For the same compound, the growth inhibition call in the test with S. aureus RN4220 was “inactive”.
Consider `Cc1ccc(-c2ccc3c(c2)O[C@H](CN(C)C(=O)Nc2ccc(C(F)(F)F)cc2)[C@H](C)CN([C@@H](C)CO)S3(=O)=O)cc1`, for which the cytotoxicity call in the test on HSkMC and with HepG2 was “inactive” in each case. The growth inhibition call in the test with S. aureus RN4220 is “inactive”.
Turning to `CCC1OC(=O)CC(O)C(C)C(OC2OC(C)C(O)C(N(C)C)C2O)C(CCN2CC(C)CC(C)C2)CC(C)C(=O)C=CC(C)=CC1COC1OC(C)C(O)C(OC)C1OC` (stereo unspecified), in the test on HSkMC, the cytotoxicity call is “inactive”. The cytotoxicity call with HepG2 is “active”. The growth inhibition call with S. aureus RN4220 is “active”.
As for `C[C@H]1CCCCO[C@H](CN(C)Cc2ccc(C(=O)O)cc2)[C@@H](C)CN([C@@H](C)CO)C(=O)c2cc(NC(=O)Nc3ccc4c(c3)OCO4)ccc2O1`, the cytotoxicity call with HSkMC and in the test on HepG2 was “inactive” each time. In the test on S. aureus RN4220, the growth inhibition call is “inactive”.
In the case of `COCC(=O)N(C)C[C@H]1Oc2cc(-c3ccc(C#N)cc3)ccc2S(=O)(=O)N([C@H](C)CO)C[C@H]1C`, the cytotoxicity call in the test on HSkMC and with HepG2 was “inactive” each time. The growth inhibition call in the test on S. aureus RN4220 is “inactive”.
Take `C[C@@H]1CN([C@H](C)CO)C(=O)CCCn2cc(nn2)CO[C@H]1CN(C)C(=O)Nc1ccc2c(c1)OCCO2`: the cytotoxicity call in the test with HSkMC and in the test on HepG2 was “inactive” each time. For the same compound, the growth inhibition call in the test with S. aureus RN4220 is “inactive”.
For `C[C@@H]1CN([C@@H](C)CO)C(=O)c2cc(N(C)C)ccc2O[C@@H](C)CCCCO[C@@H]1CN(C)S(=O)(=O)c1cn(C)cn1`, the cytotoxicity call in the test with HSkMC and in the test on HepG2 was “inactive” in each case. Moreover, the growth inhibition call in the test on S. aureus RN4220 is “inactive”.
As to `Cc1ccc(S(=O)(=O)N(C)C[C@@H]2OCCCC[C@@H](C)Oc3ccc(NC(=O)NC4CCCCC4)cc3C(=O)N([C@@H](C)CO)C[C@@H]2C)cc1`, the cytotoxicity call with HSkMC and in the test on HepG2 was “inactive” each time. In the test with S. aureus RN4220, the growth inhibition call is “inactive”.
Regarding `CCCCNc1ccccc1`, the cytotoxicity call in the test on HSkMC and in the test on HepG2 was “inactive” in each case. In the test with S. aureus RN4220, the growth inhibition call was “inactive”.
Consider `Cc1noc(C)c1NC(=O)N(C)C[C@@H]1Oc2ccc(NS(=O)(=O)c3ccccc3)cc2C(=O)N([C@@H](C)CO)C[C@H]1C`, for which the cytotoxicity call in the test on HSkMC and in the test on HepG2 was “inactive” each time. Besides, the growth inhibition call with S. aureus RN4220 was “inactive”.
For `C[C@@H]1CN([C@H](C)CO)C(=O)Cc2cc(NC(=O)Cc3ccccc3)ccc2O[C@@H]1CN(C)Cc1ccc(-c2ccccc2)cc1`, the cytotoxicity call with HSkMC was “inactive”. Besides, the cytotoxicity call with HepG2 was “active”. In addition, the growth inhibition call with S. aureus RN4220 was “inactive”.
As for `C[C@H]1CN([C@@H](C)CO)C(=O)Cc2cc(NS(C)(=O)=O)ccc2O[C@@H]1CN(C)C(=O)Nc1ccccc1`, the cytotoxicity call in the test with HSkMC and in the test with HepG2 was “inactive” each time. The growth inhibition call in the test on S. aureus RN4220 was “inactive”.
Take `C[C@@H]1CCCCO[C@H](CN(C)S(C)(=O)=O)[C@@H](C)CN([C@@H](C)CO)C(=O)c2cc(NC(=O)c3ccncc3)ccc2O1`: the cytotoxicity call in the test on HSkMC (human skeletal muscle cells) and with HepG2 was “inactive” each time. Besides, the growth inhibition call with S. aureus RN4220 is “inactive”.
As for `COc1ccc2c3c(n(c2c1)C)[C@H](CO)N(C[C@]13CCN(CC1)C(=O)Nc1c(noc1C)C)C(=O)Nc1ccc(cc1)F`, the cytotoxicity call in the test with HSkMC and with HepG2 was “inactive” in each case. In addition, in the test with S. aureus RN4220, the growth inhibition call is “inactive”.
As for `COc1ccc(CN(C)C[C@H]2OCCCC[C@H](C)Oc3ccc(NC(=O)c4ccncc4)cc3C(=O)N([C@H](C)CO)C[C@H]2C)cc1`, the cytotoxicity call in the test with HSkMC and in the test on HepG2 was “inactive” in each case. In the test with S. aureus RN4220, the growth inhibition call was “inactive”.
On to `CN1C=C(C(=O)OCCS(C)(=O)=O)C(C(=O)OCCS(C)(=O)=O)=CC(c2ccc(CO)cc2)=C[C@@H]1C1CC1`, for which the cytotoxicity call in the test with HSkMC and in the test with HepG2 was “inactive” in each case. Further, the growth inhibition call in the test on S. aureus RN4220 was “inactive”.
Regarding `COc1ccc(NC(=O)N(C)C[C@@H]2Oc3ccc(NC(=O)Nc4ccc(C(F)(F)F)cc4)cc3CC(=O)N([C@H](C)CO)C[C@@H]2C)cc1`, the cytotoxicity call in the test with HSkMC and in the test with HepG2 was “inactive” in each case. Besides, the growth inhibition call in the test with S. aureus RN4220 is “inactive”.
Consider `O=C(C[C@@H]1CC[C@H]2[C@@H](COC[C@H](O)CN2C(=O)c2ccccn2)O1)NC1CCC1`, for which the cytotoxicity call with HSkMC and in the test on HepG2 was “inactive” each time. Further, the growth inhibition call in the test with S. aureus RN4220 is “inactive”.
